The source of these data is PubChem BioAssay AID488969 (Vanderbilt High Throughput Screening Facility, 2010).

Whole data set: some 110,000 compounds, median “z-score” near -0.1, cut for the highest 2% near 2. The list shows a part of the results. Activity calls are given as the source filed them.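 How the source made its calls: active means z-score in the third read window above 3 or below -3; inactive means the rest.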

The test deals with Metabotropic glutamate receptor 8 (Rattus norvegicus) (UniProt P70579). The experiment in a line: rat mGluR8 modulators via GIRK flux, primary screen, cell-based, thallium flux, HTS (AID 488969). To be noted: HEK293 rat mGluR8, GIRK (G protein-gated inwardly rectifying potassium channel) thallium flux, FluoZin2; at 10 µM; stronger effect = higher value; submaximal glutamate (EC20) added with thallium.
UniProt P70579, sequence (P70579 whole entry, looked up): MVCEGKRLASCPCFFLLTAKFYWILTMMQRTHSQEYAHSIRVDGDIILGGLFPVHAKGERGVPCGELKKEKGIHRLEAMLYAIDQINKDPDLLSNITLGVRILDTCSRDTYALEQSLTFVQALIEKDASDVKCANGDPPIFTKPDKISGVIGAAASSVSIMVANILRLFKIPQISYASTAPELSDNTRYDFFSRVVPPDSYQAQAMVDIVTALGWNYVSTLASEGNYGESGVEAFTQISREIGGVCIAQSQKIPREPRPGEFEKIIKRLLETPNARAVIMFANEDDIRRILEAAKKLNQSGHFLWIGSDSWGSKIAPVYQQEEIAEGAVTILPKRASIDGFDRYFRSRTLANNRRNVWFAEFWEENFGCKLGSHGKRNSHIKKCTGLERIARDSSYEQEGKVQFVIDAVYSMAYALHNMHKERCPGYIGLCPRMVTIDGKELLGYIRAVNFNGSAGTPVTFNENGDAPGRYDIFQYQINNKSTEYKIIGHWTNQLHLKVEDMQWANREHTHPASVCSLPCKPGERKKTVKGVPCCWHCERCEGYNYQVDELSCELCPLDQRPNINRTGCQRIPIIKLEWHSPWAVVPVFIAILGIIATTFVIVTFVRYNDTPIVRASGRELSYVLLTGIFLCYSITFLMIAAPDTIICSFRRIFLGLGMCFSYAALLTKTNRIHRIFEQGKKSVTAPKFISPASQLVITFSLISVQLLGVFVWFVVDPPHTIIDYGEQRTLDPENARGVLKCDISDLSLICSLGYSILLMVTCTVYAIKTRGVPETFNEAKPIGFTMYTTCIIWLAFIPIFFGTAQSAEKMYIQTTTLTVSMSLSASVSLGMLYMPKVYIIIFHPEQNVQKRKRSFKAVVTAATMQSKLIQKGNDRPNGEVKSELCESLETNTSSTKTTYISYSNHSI
Compound `CCn1c(O)c(C2=NCCCC2)c2ccccc21` displayed a z-score of -1.5.
`COc1cccc(N2CCN(C(=S)Nc3cccc(C)c3)CC2)c1` registered a z-score of -0.0313.
The compound `O=C1C(C=NCc2ccncc2)=C(O)c2ccccc21` yielded a z-score of -0.586.
Take `CCOc1cc(C2C(C(=O)c3ccc(C)o3)=C(O)C(=O)N2CCc2ccccc2)ccc1O` (stereo unspecified): the z-score is -0.129.
Take `O=c1[nH]c2cc3c(cc2cc1CN(CCO)S(=O)(=O)c1ccccc1Cl)OCCO3`: the z-score was -0.162.
As to `O=C1NC(=S)SC1=C1CCCCCC1`, the z-score was active: 17.1.
In turn, `O=C(NN=C1CCN(Cc2ccccc2)CC1)C(O)c1ccccc1` (stereo unspecified) came in with a z-score of -0.114.
On to `O=c1c2ccccc2ncn1-c1ccc2c(c1)OCCO2`, for which the z-score came out at 0.748.
For `O=C1CCC(C(=O)OCc2c(Cl)cccc2Cl)N1` (stereo unspecified) the value was -0.132; for `CSc1nc2c(cnn2-c2ccc(C)c(C)c2)c(=O)[nH]1`, 0.821; for `CC1=CC(C)(C)n2c(O)c(N=NC(N)=S)c3cccc1c32`, 2.69.
`CCc1ccc(NC(=O)NCCN2CCc3ccccc3C2)cc1` yielded a z-score of -1.57.
In turn, `Cc1cccc(CSc2ncc(CO)n2C)c1` displayed a z-score of 0.12.
`Cn1c(=S)[nH]c2[nH]c(=O)cnc2c1=O`: the z-score is -0.434.
For `Cc1cc(C)nc(N2CCC(C(=O)Nc3ccc(Oc4ccccc4)cc3)CC2)n1`, the z-score was -0.163.
On to `Cc1c(Nc2nc(-c3ccccc3)cs2)c(=O)n(-c2ccccc2)n1C`, for which the z-score is -0.216.
The figure for `O=C(CSc1nc2ccccc2o1)N1N=C(c2cccs2)CC1c1ccc(F)cc1` (stereo unspecified) is -0.59.
For `CC(C)CC(=O)Nc1nc2c(c(=O)[nH]1)CCCC2` the value was -0.0333.
The figure for `CCOC(=O)c1cnc(SCC(=O)Nc2ccc(N3CCOCC3)c(Cl)c2)nc1N` is -0.24.
In turn, `O=C(O)C(Cc1ccccc1)N1C(=O)c2ccccc2C1=O` (stereo unspecified) yielded a z-score of 0.813.
For the compound `Cc1cc2n(n1)SC(Nc1ccc(F)cc1)N2` (stereo unspecified), the z-score was -0.00578.
On to `CCc1ccc(-c2nn(Cc3ccccc3)cc2/C=C/C(=O)O)cc1`, for which the z-score is -0.317.
In turn, `COc1ccc(COC(=O)NC2CCN(S(=O)(=O)c3ccc(OC)cc3)CC2)cc1` yielded a z-score of -0.669.
For `CN(C)CCCN1c2ccccc2Sc2ccc(Cl)cc21` the value was -0.408; for `CC1(C)CC(=O)C2=C(C1)OC(N)=C(C#N)C2c1cn(-c2ccccc2)nc1-c1ccc(F)cc1` (stereo unspecified), -0.436; for `O=C(CN1CCN(S(=O)(=O)c2ccc3ccccc3c2)CC1)Nc1ccc(N2CCOCC2)cc1`, -0.187.
For `CN1C2=C(C#N)C(c3ccccc3)(C(F)(F)F)NC(=O)N2c2ccccc21` (stereo unspecified) the value was -0.282; for `Cc1ccc(S(=O)(=O)CC(=O)Nc2ccc(S(=O)(=O)Nc3onc(C)c3C)cc2)cc1`, 2.41; for `O=C(Nc1nnc(-c2ccco2)o1)c1cccc2ccccc12`, 0.259.
As for `CC(=O)NS(=O)(=O)c1ccc(NC(=S)NC(=O)C(C)C)cc1`, the z-score is 0.0298.
Consider `CN1CCN(C(=O)c2cc(-c3cccc(Cl)c3)on2)CC1`, for which the z-score amounted to 1.16.
